Assay results published in PubChem BioAssay AID504832 (National Center for Advancing Translational Sciences (NCATS), 2011).
In all, about 310,000 compounds went through this assay and about 18,000 (5.8%) were called active. The shares of active, inactive and inconclusive entries below differ from those in the screen. Calls come from the whole dose curve; as a rule, active = well fitted inhibition curve with a large enough effect; inconclusive = small, poorly fitted or top-dose-only effect, or another doubt; inactive = no such curve, though single readings can be large or run the other way. No potency is given beside an inconclusive call; the fits are too rough.

Experiment: Primary qHTS for delayed death inhibitors of the malarial parasite plastid, 48 hour incubation
Conditions: P. falciparum luciferase growth in erythrocytes; series mostly up to 28.7 µM
Procedure, shortened: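 Compounds are pin-transferred into medium, infected erythrocytes (2% hematocrit, 0.1% parasitemia final) are added, and plates sit one parasite generation at 37 C in 5% CO2. Detection reagent is then added and luminescence measured.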
Potency is the fitted concentration of half-maximal effect; tags give direction and shape of the fitted curve.

SMILES | Potency
CC(=O)Nc1cccc(Oc2ncnc3scc(-c4ccc(C(C)C)cc4)c23)c1 | inconclusive [inhibitor, single point]
COc1ccc(-n2ncc3c(NCC(C)C)ncnc32)cc1 | inactive
Cc1noc(C)c1COc1ccc(C(=O)N2CC(C)CC(C)C2)cc1 (stereo not given) | inconclusive [inhibitor, partial curve, poor fit]
COC(=O)c1cccc(C23CC4(C2)[C@H](CN(Cc2ccc(C(F)(F)F)cc2)[C@@H]4c2ccccc2)C3c2ccc(C(F)(F)F)cc2)c1 (stereo not given in full) | active: 10.4 µM
CS(=O)(=O)c1ccc(Cl)c(NC(=O)COC(=O)CNC(=O)c2ccccc2)c1 | inconclusive [inhibitor, single point]
CC(C)(C)c1ccc(OCC(=O)Nc2ccc3c4c(cccc24)C(=O)NC3=O)cc1 | inconclusive [inhibitor, single point]
CCOC(=O)N1CCN(Cc2nc(-c3cccs3)no2)CC1 | inactive
COc1cccc(C(=O)COc2ccccc2-c2ccccc2)c1 | inconclusive [inhibitor, single point]
O=C(NCc1ccc(F)cc1)c1cc2sccc2n1Cc1ccc(F)cc1 | inconclusive [inhibitor, single point]
Clc1cnc(N/N=C/c2ccco2)c(Cl)c1 | inactive
CCOC(=O)C(=NC1CCCCC1)NNc1cccc(C(F)(F)F)c1 | inconclusive [inhibitor, single point]
CC(C)NC(=O)NC(=O)CSc1nnc(COc2ccccc2F)n1C(C)C1CC2CCC1C2 (stereo not given) | inconclusive [inhibitor, single point]
CN1CCN(S(=O)(=O)c2ccc3[nH]c(=O)oc3c2)CC1 | inactive
COc1ccc(C)cc1S(=O)(=O)N1CCN(S(=O)(=O)c2cc(C)ccc2OC)C(C)C1 (stereo not given) | inconclusive [inhibitor, partial curve]
Cc1ccc(C(=O)N2CCCC(CCC(=O)N3CCN(c4ccccn4)CC3)C2)cc1C (stereo not given) | inconclusive [inhibitor, partial curve]
CCN1CCN(C(=O)CN(c2ccc(F)cc2)S(=O)(=O)c2ccc(OC)c(OC)c2)CC1 | inactive
Cc1ccc2nsnc2c1NC(=O)COc1ccccc1 | inconclusive [inhibitor, partial curve, poor fit]
Cc1ccc(C(NC(=O)N2CC(C)OC(C)C2)C(Cl)Cl)cc1F (stereo not given) | inconclusive [inhibitor, single point]
NC(=O)COC(=O)/C=C/c1ccc2ccccc2n1 | inactive
COc1ccc(CNC(=O)CNC(=O)N2CC(=O)Nc3ccccc32)cc1 | inactive
CC(=O)c1c(O)cc(O)c(C(C)=O)c1O | active: 10.4 µM
CC12CC(c3ccccc3O1)N(C(=O)c1ccc(Br)o1)C(=O)N2c1ccccc1 (stereo not given) | inconclusive [inhibitor, partial curve, poor fit]
Cc1ccc(SCC(=O)Nc2cccc(S(=O)(=O)N3CCOCC3)c2)cc1C | active: 16.5 µM
CCCC(=O)NC(c1ccccc1Cl)c1ccc2cccnc2c1O (stereo not given) | inconclusive [inhibitor, full curve, poor fit]

SMILES | Potency
COC(=O)c1ccc(NC(=O)Nc2ccc(F)cc2)cc1 | inconclusive [inhibitor, single point]
CC(C)(C)C(=O)N1NC(=Nc2ccccc2)SC1(C)C | inconclusive [inhibitor, full curve, poor fit]
COc1ccccc1N1CCN(CCCCOc2cccc3ccccc23)CC1 | inconclusive [inhibitor, single point]
CCn1cc(C(=O)NCCc2ccccc2)c(=O)c2cc(F)c(N3CCN(C)CC3)cc21 | active: 10.4 µM
O=C(c1ccc(Cl)cc1)N1CCN(c2cccc3[nH]ccc23)CC1 | inconclusive [inhibitor, partial curve, poor fit]
Cn1nc(C(C)(C)C)cc1C(=O)NNC(=O)c1cccc(Cl)c1 | inconclusive [inhibitor, partial curve]
Cn1cc([N+](=O)[O-])c(C(=O)Nc2cc(Oc3cccnc3)cc([N+](=O)[O-])c2)n1 | inactive
CSCCC(NC(=O)c1ccco1)C(=O)OCC(=O)Nc1ncc(Cl)c(C)c1Cl (stereo not given) | inconclusive [inhibitor, full curve, poor fit]
CC(=O)NCCC(=O)Nc1cccc(S(=O)(=O)N(C)c2ccccc2)c1 | inconclusive [inhibitor, full curve, poor fit]
COc1ccc(C)cc1Nc1n[n+](-c2ccccc2)c(-c2ccc(NC(C)=O)cc2)s1 | inconclusive [inhibitor, single point]
COc1ccccc1NC(=O)N1CCN(CCc2ccccc2)CC1 | active: 4.15 µM
Cc1c(OCC(=O)NCC(O)c2ccccc2)ccc2c3c(c(=O)oc12)CCCC3 (stereo not given) | inactive
COc1cc(NC(=S)NC2CC2)c(OC)cc1Cl | inactive
CC(C)(C)c1ccc2c(c1)OC(C(=O)N/N=C\c1ccc[nH]1)CO2 (stereo not given) | inconclusive [inhibitor, single point]
CC(CCc1ccccc1)NC(=O)/C=C/c1ccc(Cl)cc1 (stereo not given) | inactive
O=C(Cc1ccc(Cl)cc1)NCC(=O)N1CCCCCC1 | inconclusive [inhibitor, full curve, poor fit]
O=C1N=C(N2CCc3ccccc3C2)S/C1=C\c1ccc(O)cc1 | active: 7.38 µM
CCOc1ccc(CNc2nnnn2C)cc1OC | inconclusive [inhibitor, full curve, poor fit]
CN(C)S(=O)(=O)c1ccc(Cl)c(NC(=O)CN2CCCCCC2)c1 | inconclusive [inhibitor, single point]
CCOc1ccc(S(=O)(=O)N2CCN(Cc3ccccc3)CC2)c2cccnc12 | inconclusive [inhibitor, partial curve, poor fit]
NNc1nc(Nc2ccc([N+](=O)[O-])cc2)nc(N2CCCCCC2)n1 | active: 4.15 µM
CCOC(=O)c1ccn(CSc2c(F)c(F)cc(F)c2F)n1 | inconclusive [inhibitor, single point]
Cc1[nH]n(C(C)(C)C)c(=O)c1Sc1ccc(Cl)cc1 | inconclusive [inhibitor, single point]
CC(SC1=Nc2ccccc2C2CC=NN12)C(=O)NC1(C#N)CCCCC1 (stereo not given) | inconclusive [inhibitor, single point]

SMILES | Potency
COc1ccc2cc(C(=O)C3CCCN(Cc4cnc(N5CCOCC5)s4)C3)ccc2c1 (stereo not given) | inconclusive [inhibitor, single point]
O=C(CC(c1ccccc1)c1ccccc1)Nc1ccncc1 | inconclusive [inhibitor, partial curve]
CC1CCN(CCCNC(=O)c2cc3c(Cl)nc4ccccc4c3s2)CC1 | inconclusive [inhibitor, partial curve, poor fit]
Cc1ccc(CC2C(=O)N(c3ccc(F)cc3)C(=O)C2C)cc1 (stereo not given) | inactive
COc1cccc(CN2CCNC(=O)C2CC(=O)NCCn2ccc3ccccc32)c1OC (stereo not given) | active: 11.7 µM
CCCCn1c(=O)c2c(nc3n2CCCN3Cc2ccccc2)n(C)c1=O | active: 5.22 µM
Cc1ccc(OCC(=O)N2CC3(C)CC2CC(C)(C)C3)cc1 (stereo not given) | inconclusive [inhibitor, single point]
CCN(CC(=O)Nc1ccc(NC(C)=O)cc1)C(=O)c1ccc(C(=O)c2ccccc2)cc1 | inconclusive [inhibitor, single point]
CCCc1c(O)nc(SCCN(CC)CC)n(C(=O)c2ccccc2)c1=O | inconclusive [inhibitor, single point]
Cc1ccc(C(=O)NC(=S)N2CCN(c3cc(C)ccc3C)CC2)cc1 | inconclusive [inhibitor, single point]
CCN(CC(=O)NC(C)(C)C)C(=O)c1ccc2c(c1)S(=O)(=O)c1ccccc1C2=O | inconclusive [inhibitor, single point]
O=S(=O)(Nc1ccc2c(c1)OCO2)c1ccc(Cl)cc1F | inactive
Cc1ccc(S(=O)(=O)Nc2cc(C(F)(F)F)ccc2N2CCOCC2)cc1C | active: 3.29 µM
c1ccc(Cn2c(-c3ccco3)nc3nc4ccccc4nc32)cc1 | inactive
COc1cc(C(=O)NCc2cc3ccccc3n2C)cc(OC)c1OC | inactive
COc1ccc(Cl)cc1C(=O)N1CCN(Cc2ccc3c(c2)OCO3)CC1 | inactive
COc1ccc(O)c(-c2c(-c3ccc(Cl)cc3)n[nH]c2C)c1 | inconclusive [inhibitor, single point]
CCOC(=O)c1cnc(-n2nc(C)cc2C)nc1Nc1ccc2c(c1)OCO2 | inactive
COc1ccc(/C=C2\SC(=O)N(CCNC(=O)Cc3coc4cc(OC)ccc34)C2=O)cc1 | inconclusive [inhibitor, partial curve, poor fit]
CN(Cc1ccc(C(C)(C)C)cc1)Cc1cccc2ccccc12 | inconclusive [inhibitor, single point]
O=C(CSc1nc(Cc2ccccc2)nc2ccccc12)Nc1nc2c(s1)CCCC2 | inconclusive [inhibitor, single point]
CCNc1nc(Oc2ccc(C(=O)OC)cc2)nc(SC)n1 | inconclusive [inhibitor, partial curve, poor fit]
